# T1: human BCMA (huBCMA) on cells (human, UniProt Q02223 1-184)
# T1 construct: endogenous on H929, JD38 and other myeloma and B-cell lines and on patient plasma cells; also called native human BCMA
# T1 chain: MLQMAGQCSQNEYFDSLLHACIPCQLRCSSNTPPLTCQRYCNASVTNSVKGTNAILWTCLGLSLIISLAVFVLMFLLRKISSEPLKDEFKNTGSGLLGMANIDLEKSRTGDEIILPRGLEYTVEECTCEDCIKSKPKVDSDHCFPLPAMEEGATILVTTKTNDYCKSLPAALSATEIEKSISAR
# B1: 2A1 Covariance 1 (2A1_C107T) (antibody, human IgG1, lambda)
# heavy: EVQLVESGGGLVKPGRSLRLSCTASGFTFGDYALSWFRQAPGKGLEWVGVSRSKAYGGTTDYAASVKGRFTISRDDSKSFAYLQMNSLKTEDTAVYYCTSSGYSSGWTPFDYWGQGTLVTVSS[omitted - human IgG1 constant region]
# light: QSVLTQPPSASGTPGQRVTISCSGSSSNIGSNTVNWYQQLPGTAPKLLIFNYHQRPSGVPDRFSGSKSGSSASLAISGLQSEDEADYYCAAWDDSLNGWVFGGGTELTVLGQPKAAPSVTLFPPSSEELQANKATLVCLISDFYPGAVTVAWKADSSPVKAGVETTTPSKQSNNKYAASSYLSLTPEQWKSHRSYSCQVTHEGSTVEKTVAPTECS
# notes: IgG1 mutein of 2A1; also called Ab-19
# Target: T1, human BCMA (huBCMA) on cells
# Assay: FACS, H929 cells
binder,measurement,value
B1,EC50 (read off the curve),~0.4 µg/mL

# — patent publication US20150344583A1 (Amgen, published 2015)
